# Reference: PubChem BioAssay (NCATS)
# Several values for one entry are separate records, joined by “and”; a condition that tells them apart may be missing. Identical values can stand only once. This list was built around the results that the source calls inconclusive (neither active nor inactive); the mix of calls is not that of the screen. For some of these results: Where the call is inconclusive, the potency comes from a doubtful curve fit. Activity calls are given as the source filed them. Calls come from the whole dose curve; as a rule, active = well fitted curve in the direction sought with a large enough effect; inconclusive = small, poorly fitted or top-dose-only effect, or another doubt; inactive = no such curve, though single readings can be large; an effect the other way counts as inactive or inconclusive.
# Tests used:
# CRL-7250 = normal cell line; assay: Cytotoxic Profiling of Annotated Libraries Using Quantitative High-Throughput Screening (AID 1296008); conditions: Five cell lines viability, CellTiter-Glo ATP luminescence, 48-72 h; max response: stronger effect = lower value; note: nearly all actives have a fitted effect of over 60% in size; note: potency is the fitted concentration of half-maximal effect
# How it was run: (§1)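 Compounds were pin-transferred onto cells and incubated 48 or 72 hr at 37 degree Celsius, 95% humidity. CellTiter-Glo was added, plates sat 10 min at room temperature, then ATP-coupled luminescence was imaged as the viability read-out.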
# KB-3-1 = assay: as above; conditions: Five cell lines viability, CellTiter-Glo ATP luminescence, 48-72 h; max response: stronger effect = lower value
# How it was run: as §1
# NIH3T3 = assay: as above; conditions: Five cell lines viability, CellTiter-Glo ATP luminescence, 48-72 h; max response: stronger effect = lower value
# How it was run: as §1
# MCC-13 = assay: qHTS assay to identify novel small-molecules to repurpose for Merkel cell carcinoma treatment (AID 1296009); conditions: MCC and control cell lines, CellTiter-Glo viability, 72 h; series mostly up to 46 µM; note: nearly all actives have a fitted effect of over 60% in size; note: potency is the fitted concentration of half-maximal effect; for activity change, negative = cytotoxicity: % is set by controls: 0 for no effect and ±100 for the full control effect
# How it was run: (§2)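 qHTS format: cells treated with library compounds in DMSO across 8 (NPC) or 11 (MIPE) concentrations. Readout after 72 hr at 37 degree celsius was CellTiter-Glo luminescence.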
# MCC-26 = assay: as above; conditions: MCC and control cell lines, CellTiter-Glo viability, 72 h; series mostly up to 46 µM
# How it was run: as §2
# MKL-1 = assay: as above; conditions: MCC and control cell lines, CellTiter-Glo viability, 72 h; series mostly up to 46 µM
# How it was run: as §2
# MKL-2 = assay: as above; conditions: MCC and control cell lines, CellTiter-Glo viability, 72 h; series mostly up to 46 µM
# How it was run: as §2
# [1] = qHTS assay to identify inhibitors of the type 1 interferon - major histocompatibility complex class I in skeletal muscle: Counter screen cell viability and HiBit confirmation (AID 1347412); conditions: iHSKM muscle cells + IFN-b, HiBiT or CellTiter-Glo, 24 h, at 45.9 µM (top of the series); note: % is set by controls: 0 for no effect and ±100 for the full control effect; nearly all actives have a fitted effect of over 60% in size
# How it was run: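 Luminescence read-out: Nano-Glo HiBiT lytic signal from C-terminally HiBiT-tagged HLA-B in CRISPR-edited human myoblasts, plus CellTiter Glo ATP as viability counter screen. IFN-beta 4.0 ng/ml; 24 hrs treatment at 37 C, 5% CO2.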
# C33A = assay: Primary qHTS to identify gynecologic anti-cancer compounds using libraries of approved drugs and bioactive compounds (AID 1345084); conditions: Gynecologic cancer cell panel viability, ATPlite luminescence, 48 h; series mostly up to 57.5 µM; note: nearly all actives have a fitted effect of over 55% in size; note: potency is the fitted concentration of half-maximal effect; for activity change, negative = cytotoxicity: % is set by controls: 0 for no effect and ±100 for the full control effect
# How it was run: (§3)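 Cells, 1,000 per well, plated 16 h, then exposed 48 h at 37 C to compounds. Viability by ATPlite luminescence after 15 min at room temperature.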
# CAOV3 = assay: as above; conditions: Gynecologic cancer cell panel viability, ATPlite luminescence, 48 h; series mostly up to 57.5 µM
# How it was run: as §3
# CASKI = assay: as above; conditions: Gynecologic cancer cell panel viability, ATPlite luminescence, 48 h; activity change, negative = cytotoxicity: at 57.5 µM (top of the series)
# How it was run: as §3
# Es-2 = assay: as above; conditions: Gynecologic cancer cell panel viability, ATPlite luminescence, 48 h; series mostly up to 57.5 µM
# How it was run: as §3
# UISO = assay: qHTS assay to identify novel small-molecules to repurpose for Merkel cell carcinoma treatment (AID 1296009); conditions: MCC and control cell lines, CellTiter-Glo viability, 72 h; series mostly up to 46 µM; note: nearly all actives have a fitted effect of over 60% in size; note: potency is the fitted concentration of half-maximal effect; for activity change, negative = cytotoxicity: % is set by controls: 0 for no effect and ±100 for the full control effect
# How it was run: as §2
# WaGa = assay: as above; conditions: MCC and control cell lines, CellTiter-Glo viability, 72 h; series mostly up to 46 µM
# How it was run: as §2
# HeLa = assay: Primary qHTS to identify gynecologic anti-cancer compounds using libraries of approved drugs and bioactive compounds (AID 1345084); conditions: Gynecologic cancer cell panel viability, ATPlite luminescence, 48 h; series mostly up to 57.5 µM; note: nearly all actives have a fitted effect of over 55% in size; note: potency is the fitted concentration of half-maximal effect; for activity change, negative = cytotoxicity: % is set by controls: 0 for no effect and ±100 for the full control effect
# How it was run: as §3
# W2 = assay: qHTS profiling for inhibitors of Plasmodium falciparum proliferation (AID 504749); conditions: P. falciparum in erythrocytes, SYBR Green DNA, 72 h; series mostly up to 28.7 µM
# How it was run: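 Parasite proliferation within erythrocytes, 72 h exposure. Endpoint: SYBR Green I fluorescence after overnight lysis at room temperature. Controls: 0.29 uM artemisinin, DMSO.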
# astro = assay: Drug repurposing screens with cells derived from glioblastoma tumor samples (AID 1345199); conditions: viability, ATP luminescence, 48 h; activity, negative = cell killing: at 45.9 µM (top of the series); note: potency is the fitted concentration of half-maximal effect; nearly all actives have a fitted effect of over 40% in size
# How it was run: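 Four patient lines of CD133+ GBM neurospheres were screened at several concentrations; hits were retested in those lines plus three slower-growing GBM lines, using 48-hour treatment and ATP-based viability.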
# Tags give direction and shape of the fitted curve.
smiles,measurement,setting,value
c1ccc2c(CCNc3ccc(Nc4ccncc4)cc3)c[nH]c2c1,Potency,CRL-7250,"active: 10.5 µM and inconclusive: 5.8 µM [inhibitor, partial curve, poor fit]"
same,Potency,KB-3-1,"active: 23.5 µM and inconclusive: 29.1 µM [inhibitor, single point]"
same,Potency,NIH3T3,active: 16.6 µM and active: 11.6 µM
same,Potency,MCC-13,active: 20.9 µM
same,Potency,MCC-26,"inconclusive: 29.6 µM [inhibitor, single point]"
same,Potency,MKL-1,active: 9.35 µM
same,Potency,MKL-2,active: 5.9 µM
same,"activity change, negative = inhibition",[1]; HiBiT,inactive: 19.8%
same,"activity change, negative = inhibition",[1]; Viability,inactive: -28.3%
same,Potency,C33A,"inconclusive: 35.5 µM [cytotoxic, single point]"
same,Potency,CAOV3,"inconclusive: 25.1 µM [cytotoxic, single point]"
same,Potency,CASKI,"inconclusive: 11.2 µM [cytotoxic, partial curve]"
same,Potency,Es-2,"inconclusive: 20 µM [cytotoxic, partial curve]"
COc1ccccc1[C@H](c1cccc2ccccc12)[C@@](C)(C#N)C(=O)N1CCC(c2cccc(C(F)(F)F)c2)CC1,Potency,CRL-7250,active: 26.4 µM
same,Potency,KB-3-1,"inconclusive: 14.8 µM [inhibitor, partial curve]"
same,Potency,NIH3T3,"inconclusive: 37.2 µM [inhibitor, single point]"
same,Potency,MCC-13,inactive
same,Potency,MKL-1,"inconclusive: 13.2 µM [inhibitor, partial curve, poor fit]"
same,Potency,MKL-2,"inconclusive: 2.64 µM [inhibitor, partial curve]"
same,Potency,UISO,"inconclusive: 11.8 µM [inhibitor, partial curve]"
same,Potency,WaGa,"inconclusive: 10.5 µM [inhibitor, partial curve]"
same,Potency,HeLa,inactive
CCn1c(-c2nonc2N)nc2cncc(CNC3CCNCC3)c21,Potency,CRL-7250,"inconclusive: 3.72 µM [inhibitor, full curve]"
same,Potency,NIH3T3,"inconclusive: 14.8 µM [inhibitor, partial curve] and inconclusive: 18.4 µM [inhibitor, partial curve]"
same,Potency,MKL-2,"inconclusive: 6.62 µM [inhibitor, full curve]"
same,Potency,WaGa,"inconclusive: 7.43 µM [inhibitor, partial curve]"
same,Potency,C33A,"inconclusive: 3.16 µM [cytotoxic, full curve, poor fit]"
COCc1c(C(C)C)nc(C(C)C)c(/C=C/[C@@H](O)C[C@@H](O)CC(=O)O)c1-c1ccc(F)cc1,Potency,W2,"inconclusive: 19 µM [inhibitor, single point]"
same,Potency,CRL-7250,active: 0.0596 µM
same,Potency,KB-3-1,active: 1.84 µM
same,Potency,MKL-2,"inconclusive: 0.422 µM [inhibitor, full curve]"
same,Potency,WaGa,active: 1.06 µM
same,Potency,astro,active: 0.1 µM
same,Potency,C33A,"inconclusive: 10 µM [cytotoxic, partial curve]"
same,Potency,CAOV3,active: 7.08 µM
same,Potency,Es-2,"inconclusive: 1.12 µM [cytotoxic, full curve]"
same,Potency,HeLa,active: 1.78 µM
CCC1=C[C@@H]2CN(C1)Cc1c([nH]c3ccccc13)[C@@](C(=O)OC)(c1cc3c(cc1OC)N(C)[C@@H]1[C@@](O)(C(=O)OC)[C@H](OC(C)=O)[C@]4(CC)C=CCN5CC[C@]31[C@@H]54)C2,Potency,W2,active: 0.19 µM
same,Potency,CRL-7250,active: 0.0469 µM
same,Potency,KB-3-1,active: 0.0166 µM
same,Potency,NIH3T3,"inconclusive: 0.118 µM [inhibitor, full curve]"
same,Potency,MCC-13,"inconclusive: 2.09 µM [inhibitor, full curve]"
same,Potency,MCC-26,"inconclusive: 0.296 µM [inhibitor, full curve]"
same,Potency,MKL-1,active: 0.0118 µM
same,Potency,MKL-2,"inconclusive: 0.372 µM [inhibitor, full curve, poor fit]"
same,Potency,UISO,"inconclusive: 0.0209 µM [inhibitor, full curve]"
same,Potency,WaGa,"inconclusive: 0.0059 µM [inhibitor, full curve]"
same,Potency,astro,"inconclusive: 0.447 µM [inhibitor, full curve]"
CCc1ccc(C(=O)C(C)CN2CCCCC2)cc1 (stereo not given),Potency,W2,"inconclusive: 19 µM [inhibitor, single point]"
same,Potency,CRL-7250,"inconclusive: 33.5 µM [inhibitor, single point]"
same,max response,KB-3-1,inactive: -1.02%
same,Potency,MCC-13,inactive
same,Potency,MKL-1,"inconclusive: 26.6 µM [inhibitor, single point]"
same,Potency,WaGa,"inconclusive: 15 µM [inhibitor, partial curve]"
same,Potency,CAOV3,inactive
